This is one part of the list. The list includes weakly bound sequences.

For this assay, the target named is T1, MBP-FoxP3dN (UniProt Q99JB6).
T1 sequence: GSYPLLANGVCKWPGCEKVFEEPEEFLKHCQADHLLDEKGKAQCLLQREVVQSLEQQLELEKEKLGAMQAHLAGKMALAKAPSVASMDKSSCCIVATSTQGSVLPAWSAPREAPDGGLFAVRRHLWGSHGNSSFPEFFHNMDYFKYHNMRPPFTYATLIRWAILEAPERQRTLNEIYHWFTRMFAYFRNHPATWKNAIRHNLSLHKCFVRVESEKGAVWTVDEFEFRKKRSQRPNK
The experiment in a line: PD-seq (MBP pull-down with sequencing). The note with it: 20 mM Tris-HCl pH 7.5, 100 mM NaCl, 1.5 mM MgCl2, 0.4 uM protein, 0.1 uM dsDNA library, 30 min, room temperature, amylose pull-down; high values mean tight binding; double strand, one strand shown.
Consider “GATGATTGTTCTCCCAGCTGATGAATTTCTATTTTCGAGTAAACAAATTTTCCTAATCTTTCTGTTCAAGCGCCATCTAC”, for which the binding signal (RPM ratio (pull-down/input)) came out at 0.543.
“GATGATTGTTCTCCCAGCTGATGAATTATAGAAATCGAGTAAACAAATTTTCCTAATCTTTCTGTTCAAGCGCCATCTAC”: the binding signal (RPM ratio (pull-down/input)) worked out at 0.267.
Then “GATGATTGTTCTCCCAGCTGATGAATTATCCAGCTCGAGTAAACAAATTTTCCTAATCTTTCTGTTCAAGCGCCATCTAC”, with 0.227.
On to “GATGATTGTTCTCCCAGCTGATGAATTTACACCATCGAGTAAACAAATTTTCCTAATCTTTCTGTTCAAGCGCCATCTAC”, for which the binding signal (RPM ratio (pull-down/input)) came to 0.881.
On to “GATGATTGTTCTCCCAGCTGATGAATTCGCCAGCTCGAGTAAACAAATTTTCCTAATCTTTCTGTTCAAGCGCCATCTAC”, for which the binding signal (RPM ratio (pull-down/input)) amounted to 0.312.
As for “GATGATTGTTCTCCCAGCTGATGAATTCCTCGCCTCGAGTAAACAAATTTTCCTAATCTTTCTGTTCAAGCGCCATCTAC”, the binding signal (RPM ratio (pull-down/input)) was found to be 0.44.
Then “GATGATTGTTCTCCCAGCTGATGAATTAACATCCTCGAGTAAACAAATTTTCCTAATCTTTCTGTTCAAGCGCCATCTAC”, with 0.476; and “GATGATTGTTCTCCCAGCTGATGAATTGAAAAAGTCGAGTAAACAAATTTTCCTAATCTTTCTGTTCAAGCGCCATCTAC”, with 0.161.
For “GATGATTGTTCTCCCAGCTGATGAATTAGTTATTTCGAGTAAACAAATTTTCCTAATCTTTCTGTTCAAGCGCCATCTAC”, the binding signal (RPM ratio (pull-down/input)) is 4.85.
Then “GATGATTGTTCTCCCAGCTGATGAATTCTGAGGGTCGAGTAAACAAATTTTCCTAATCTTTCTGTTCAAGCGCCATCTAC”, with 0.308; and “GATGATTGTTCTCCCAGCTGATGAATTCGGGACGTCGAGTAAACAAATTTTCCTAATCTTTCTGTTCAAGCGCCATCTAC”, with 0.287; and “GATGATTGTTCTCCCAGCTGATGAATTTACTAAGTCGAGTAAACAAATTTTCCTAATCTTTCTGTTCAAGCGCCATCTAC”, with 0.32.
With “GATGATTGTTCTCCCAGCTGATGAATTAGGTCCTTCGAGTAAACAAATTTTCCTAATCTTTCTGTTCAAGCGCCATCTAC”, the binding signal (RPM ratio (pull-down/input)) was 0.354.
On to “GATGATTGTTCTCCCAGCTGATGAATTCTCGGGCTCGAGTAAACAAATTTTCCTAATCTTTCTGTTCAAGCGCCATCTAC”, for which the binding signal (RPM ratio (pull-down/input)) came out at 0.204.
In the case of “GATGATTGTTCTCCCAGCTGATGAATTCGTTCTCTCGAGTAAACAAATTTTCCTAATCTTTCTGTTCAAGCGCCATCTAC” it was 0.324; in that of “GATGATTGTTCTCCCAGCTGATGAATTAGTCCCTTCGAGTAAACAAATTTTCCTAATCTTTCTGTTCAAGCGCCATCTAC”, 0.675; in that of “GATGATTGTTCTCCCAGCTGATGAATTTCCGATATCGAGTAAACAAATTTTCCTAATCTTTCTGTTCAAGCGCCATCTAC”, 0.376.
Then “GATGATTGTTCTCCCAGCTGATGAATTATCGGACTCGAGTAAACAAATTTTCCTAATCTTTCTGTTCAAGCGCCATCTAC”, with 0.253; and “GATGATTGTTCTCCCAGCTGATGAATTTCTACGCTCGAGTAAACAAATTTTCCTAATCTTTCTGTTCAAGCGCCATCTAC”, with 0.231.
For “GATGATTGTTCTCCCAGCTGATGAATTTTCCTTATCGAGTAAACAAATTTTCCTAATCTTTCTGTTCAAGCGCCATCTAC”, the binding signal (RPM ratio (pull-down/input)) is 0.31.
“GATGATTGTTCTCCCAGCTGATGAATTGCCGTGATCGAGTAAACAAATTTTCCTAATCTTTCTGTTCAAGCGCCATCTAC”: the binding signal (RPM ratio (pull-down/input)) is 0.686.
As for “GATGATTGTTCTCCCAGCTGATGAATTTGATTATTCGAGTAAACAAATTTTCCTAATCTTTCTGTTCAAGCGCCATCTAC”, the binding signal (RPM ratio (pull-down/input)) was 4.96.
Regarding “GATGATTGTTCTCCCAGCTGATGAATTCGAGACCTCGAGTAAACAAATTTTCCTAATCTTTCTGTTCAAGCGCCATCTAC”, the binding signal (RPM ratio (pull-down/input)) was 0.251.
In the case of “GATGATTGTTCTCCCAGCTGATGAATTCCCCAGTTCGAGTAAACAAATTTTCCTAATCTTTCTGTTCAAGCGCCATCTAC”, the binding signal (RPM ratio (pull-down/input)) was determined as 0.215.
As for “GATGATTGTTCTCCCAGCTGATGAATTGCGTCACTCGAGTAAACAAATTTTCCTAATCTTTCTGTTCAAGCGCCATCTAC”, the binding signal (RPM ratio (pull-down/input)) was found to be 1.97.
In the case of “GATGATTGTTCTCCCAGCTGATGAATTAGTAATGTCGAGTAAACAAATTTTCCTAATCTTTCTGTTCAAGCGCCATCTAC”, the binding signal (RPM ratio (pull-down/input)) came to 1.13.
As for “GATGATTGTTCTCCCAGCTGATGAATTGTTGGGCTCGAGTAAACAAATTTTCCTAATCTTTCTGTTCAAGCGCCATCTAC”, the binding signal (RPM ratio (pull-down/input)) was determined as 1.71.
Regarding “GATGATTGTTCTCCCAGCTGATGAATTGAATGAGTCGAGTAAACAAATTTTCCTAATCTTTCTGTTCAAGCGCCATCTAC”, the binding signal (RPM ratio (pull-down/input)) was found to be 0.413.
In the case of “GATGATTGTTCTCCCAGCTGATGAATTTGCGCATTCGAGTAAACAAATTTTCCTAATCTTTCTGTTCAAGCGCCATCTAC” it was 7.07.
Turning to “GATGATTGTTCTCCCAGCTGATGAATTCAGCTCCTCGAGTAAACAAATTTTCCTAATCTTTCTGTTCAAGCGCCATCTAC”, the binding signal (RPM ratio (pull-down/input)) is 0.649.
Turning to “GATGATTGTTCTCCCAGCTGATGAATTGACGGGTTCGAGTAAACAAATTTTCCTAATCTTTCTGTTCAAGCGCCATCTAC”, the binding signal (RPM ratio (pull-down/input)) stood at 0.415.
In the case of “GATGATTGTTCTCCCAGCTGATGAATTTAAAAAATCGAGTAAACAAATTTTCCTAATCTTTCTGTTCAAGCGCCATCTAC”, the binding signal (RPM ratio (pull-down/input)) was found to be 0.162.
